Measurements published in the supplement of paper PMC10338343.
± gives the standard deviation. The list shows a part of the results, in another mix than the full data.

System: MIWI (PIWIL1) piRISC loaded with L1MC piRNA (30 nt)
Experiment: pre-steady-state target cleavage rate (min^-1); MIWI and MILI are mouse PIWI proteins and EfPiwi is from a freshwater sponge; tags in brackets are library labels; higher = faster piRNA-guided slicing of the target
Conditions: guide: L1MC piRNA 5'p-UAACUAAAUACUAUGCAAGCUGUAGGUCCU; auxiliary factor: 500 nM mouse GTSF1
Method: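 Cleave-'n-Seq: a library of target RNAs (target site embedded in constant flanks, ACAGCATTCCGCGTTAGTGATATCCG... 5' flank; DNA-blocked outside the site) at 0.1 nM was incubated with 1 nM active mouse MILI or MIWI piRISC (synthetic 5'-monophosphorylated piRNA guide) with or without 500 nM mouse GTSF1 at 33 °C for 1 min to 16 h. Uncleaved targets were sequenced and normalised to non-target controls, and the pooled three trials were fitted to a burst-and-steady-state model to give the pre-steady-state cleavage rate (min^-1; k3 is constrained to at most 1e-4). Sequence is the target site only; target names encode pairing extent (gX:gY) and contiguous / 1-mismatch / 2-mismatch / bulge geometry. Fits with R² ≤ 0 are excluded.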

Row | Sequence | pre-steady-state target cleavage rate
1 | UGGACGUACAGCUUGCAUAGUUUUUAGUUA | 0.35 ± 0.015
2 | AGGACGAACAGCUUGCAUAGUAUUUAGAAA | 0.388 ± 0.054
3 | UCCUGGUACAGCUUGCAUACUAUUUAGAUA | 0.055 ± 0.015
4 | AGCACCUACAGGUUGCAUAGUAUUUAGUUA | 1.11 ± 0.26
5 | UCGACCUACAGCUUGCAUUGUAUUUAGUUA | 1.08 ± 0.037
6 | UCCUGGUACAGUUUGCAUAGUAUUUAGUUA | 0.706 ± 0.044
7 | UCGACCUUCACCUUGCAUAGUAUUUAGUUA | 0.909 ± 0.045
8 | UCCUCCUACACCUUGCAUUGUAUUUAGUUA | 0.612 ± 0.035
9 | UCCACGUACAGCUUGCAUAGUAUUUAGAAA | 0.341 ± 0.037
10 | UCCUGGAUGUCGUUGCAUAGUAUUUAUGUUA | 0.00581 ± 0.0041
11 | UCCUGGAUGUCGUCUGCAUAGUAUUUAGUUA | 0.0162 ± 0.0045
12 | UCCUGGAUGUGCUUGCAUAGUAUUAACUUA | 0.0107 ± 0.0052
13 | UCCACCUACAGCUUGCAAAGUAAUUAGUUA | 0.45 ± 0.031
14 | UCCUGGAUGUGCUAGCAUAGUUUUUAGUUA | 0.00647 ± 0.0034
15 | UGGACCUACUGCUUGCAAAGUAUUUAGUUA | 1.23 ± 0.059
16 | UCCUGCUACAGGAAGCAUAGUAUUUAGAAA | 0.0565 ± 0.021
17 | UGCACCUACAGCUUGCAUAGUAUUUAGUUA | 1.22 ± 0.11
18 | UCCUGGAUGAGCAUGCAUAGUAAUUAGUUA | 0.102 ± 0.013
19 | UCCUGCUACAGACUUGCAUAGUAUUUAGUUA | 0.402 ± 0.028
20 | UCCACCUACAGGUUGCAUAGUAUUUAGAAA | 0.455 ± 0.056
21 | UCCUGCUACUGCUAGCAUAGUAUUUAGUUA | 0.764 ± 0.062
22 | UCCACCUACAGCUAGCAUAGUAUUUAGAAA | 0.318 ± 0.054
23 | UCCUGGAUGUCGAACGUAUCUAUUAAGUUA | < 0.0001

Same assay, conditions: guide: L1MC piRNA 5'p-UAACUAAAUACUAUGCAAGCUGUAGGUCCU; auxiliary factor: none (no GTSF1)

Row | Sequence | pre-steady-state target cleavage rate
24 | UGGACGUACAGCUUGCAUAGUUUUUAGUUA | 0.0389 ± 0.0097
25 | AGGACGAACAGCUUGCAUAGUAUUUAGAAA | 0.0136 ± 0.0038
26 | UCCUGGUACAGCUUGCAUACUAUUUAGAUA | 0.00449 ± 0.0022
27 | AGCACCUACAGGUUGCAUAGUAUUUAGUUA | 0.0115 ± 0.0035
28 | UCGACCUACAGCUUGCAUUGUAUUUAGUUA | 0.0381 ± 0.0094
29 | UCCUGGUACAGUUUGCAUAGUAUUUAGUUA | 0.0392 ± 0.0063
30 | UCGACCUUCACCUUGCAUAGUAUUUAGUUA | 0.0488 ± 0.0074
31 | UCCUCCUACACCUUGCAUUGUAUUUAGUUA | 0.0239 ± 0.0046
32 | UCCACGUACAGCUUGCAUAGUAUUUAGAAA | 0.00692 ± 0.0022
33 | UCCUGGAUGUGCUUGCAUAGUAUUAACUUA | 0.00372 ± 0.003
34 | UCCACCUACAGCUUGCAAAGUAAUUAGUUA | 0.00911 ± 0.0032
35 | UCCUGGAUGUGCUAGCAUAGUUUUUAGUUA | 0.00431 ± 0.0024
36 | UGGACCUACUGCUUGCAAAGUAUUUAGUUA | 0.0383 ± 0.0078
37 | UGCACCUACAGCUUGCAUAGUAUUUAGUUA | 0.0865 ± 0.017
38 | UCCUGGAUGAGCAUGCAUAGUAAUUAGUUA | 0.00545 ± 0.0019
39 | UCCUGCUACAGACUUGCAUAGUAUUUAGUUA | 0.0238 ± 0.004
40 | UCCUGCUACUGCUAGCAUAGUAUUUAGUUA | 0.0125 ± 0.0028
41 | UCCUGGAUGUCGAACGUAUCUAUUAAGUUA | < 0.0001
